About 50,000 (12%) of roughly 420,000 compounds were called active. The inconclusive results got no clear call from the source; some entries with a clear call stand among them for comparison. Calls come from the whole dose curve; as a rule, active = well fitted inhibition curve with a large enough effect; inconclusive = small, poorly fitted or top-dose-only effect; inactive = flat fitted curve, though single readings scatter. No potency is given beside an inconclusive call; the fits are too rough.
Assay: qHTS for Inhibitors of human tyrosyl-DNA phosphodiesterase 1 (TDP1): qHTS in cells in presence of CPT; note: nearly all actives have a fitted effect of over 55% in size
Details: chicken DT40 Tdp1-/-;hTDP1 cells + 20 nM CPT, ATP luminescence, 48 h; activity change, negative = growth inhibition: at 46.2 µM (top of the series)
Procedure, shortened: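 Chicken DT40 Tdp1-/- cells complemented with human TDP1, 400 cells/well, exposed to compounds plus 20 nM camptothecin for at least 48 h at 37 C; viability read as ATP content by CellTiter-Glo luminescence.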
% is set by controls: 0 for no effect and ±100 for the full control effect; potency is the fitted concentration of half-maximal effect; tags give direction and shape of the fitted curve.

SMILES	Potency	activity change, negative = growth inhibition
CC1(C)Cc2c(c(N3CCCC3)nc3sc4c(N5CCN(CCO)CC5)ncnc4c23)CO1	active: 16.4 µM	–
Cc1cccc(NC(=O)c2cc(S(=O)(=O)N(C)c3ccc(F)cc3)ccc2Cl)n1	inconclusive [inhibitor, single point]	–
CC(C)C1N(c2ccccc2)C(N)=C(C#N)C1(C#N)C#N (centres undefined)	inconclusive [inhibitor, single point]	–
COc1ccc2nc3c(cc2c1)c(NC(=O)c1cccs1)nn3CC(C)C	inconclusive [inhibitor, single point]	–
Cc1nc(N/N=C/c2ccc(Br)cc2)cc(N2CCOCC2)n1	active: 7.31 µM	–
CCOc1cc(C(N)=O)cc(Br)c1OC	active: 23.1 µM	–
Cc1cc(C)nc(SCCCNCc2ccc(Br)cc2)n1	inconclusive [inhibitor, single point]	–
CCCN1C2CCCC1CC(NC(=S)Nc1ccc(OC)cc1)C2 (centres undefined)	inconclusive [inhibitor, single point]	–
COc1cc2nc(CN(C)Cc3ccc(Cl)cc3)[nH]c(=O)c2cc1OC	inconclusive [inhibitor, single point]	–
Cc1ccc(OCC(=O)Nc2ccc(O)c(-c3nc4cc(C)c(C)cc4o3)c2)cc1	inconclusive [inhibitor, partial curve, poor fit]	–
CC(=O)c1ccc(NC(=O)C2CCC(CNS(=O)(=O)c3ccc(Br)s3)CC2)cc1 (centres undefined)	–	inactive: 11.4%
Cc1cc(C(=O)N2CCCC(N3CCN(c4ccccc4C)CC3)C2)n(C)n1 (centres undefined)	inconclusive [inhibitor, partial curve, poor fit]	–
CCc1c(C#N)c(SCCC(=O)Nc2ccc(OC)cc2)nc2c1C(=O)CC(C)(C)C2	–	inactive: -24.2%
Cc1cc(C)c(C)c(S(=O)(=O)Nc2ccc(O)cc2)c1C	inconclusive [inhibitor, single point]	–
COC(=O)[C@]12CCCCC=C1N(CCc1ccc(OC)c(OC)c1)C(=O)[C@H](CC(=O)N1CCSCC1)C2	inconclusive [inhibitor, partial curve, poor fit]	–
Cc1ccc2cc(CN(c3ccccc3C)S(=O)(=O)c3ccccc3)c(=O)[nH]c2c1	inconclusive [inhibitor, single point]	–
CC(=O)N1c2cc3ccccc3cc2N(C(C)=O)c2cc3ccccc3cc21	–	inconclusive: -34.2% [inhibitor]
CCOC(=O)c1ccccc1NC(=O)COC(=O)c1ccccc1C(=O)N(C)c1ccccc1	inconclusive [inhibitor, single point]	–
COc1ccc(CCC(=O)N2CCN(c3ccc([N+](=O)[O-])cc3)CC2)cc1OC	inconclusive [inhibitor, single point]	–
O=C(NNC(=O)c1ccccc1Cl)c1ccc(-n2cncn2)c([N+](=O)[O-])c1	–	inactive: 5.97%
COc1ccccc1-c1csc(NC(=O)c2cc(-c3cccs3)nc3ccccc23)n1	–	inactive: -21.1%
CCC(C)(C)n1nnnc1C(C(C)C)N(Cc1cccnc1)Cc1ccco1 (centres undefined)	inconclusive [inhibitor, single point]	–
Cn1cc([N+](=O)[O-])c(C(=O)Nc2nc(-c3ccc(Cl)cc3)cs2)n1	inconclusive [inhibitor, single point]	–

SMILES	Potency	activity change, negative = growth inhibition
O=C(OCC(=O)N1CCNC1=O)c1ccccc1Cl	–	inactive: 2.05%
Cc1ccccc1C1(O)c2ccccc2-c2ccccc21	active: 23.1 µM	–
Cc1nnc(NC(=O)c2oc3ccccc3c2C)s1	–	inconclusive: -30.2% [inhibitor]
Cc1ccc(NC(=O)c2ccc(N/N=C/c3cccc(O)c3)c([N+](=O)[O-])c2)cc1	active: 9.2 µM	–
c1ccc(-c2cn3c(n2)CCc2ccc4cccnc4c2-3)cc1	active: 13 µM	–
O=C(NCc1ccc2c(c1)OCO2)c1ccc(N2CCCCCC2)c([N+](=O)[O-])c1	inconclusive [inhibitor, single point]	–
CCc1cc2cc(C)cc(C)c2[nH]c1=S	inconclusive [inhibitor, single point]	–
CSCCNC(=O)c1ccc(OC2CCN(S(=O)(=O)N(C)C)CC2)cc1	–	inactive: -12.1%
COc1ccc(Cl)cc1NC(=O)CN(C)C(=O)c1ccc2n[nH]nc2c1	–	inactive: 2.23%
CCNc1nc(NCC)nc(N2CC(=O)N(CC(=O)OCC)C2=N)n1	inconclusive [inhibitor, single point]	–
O=C(CC1Sc2ccccc2NC1=O)NNc1ccc(Cl)c(Cl)c1 (centres undefined)	inconclusive [inhibitor, partial curve]	–
CCCCn1c(N)c(N(CCOC)C(=O)c2cc(-c3ccc(F)cc3)nc3ccccc23)c(=O)[nH]c1=O	inconclusive [inhibitor, full curve]	–
C=CCN=c1scc(-c2ccco2)n1/N=C/c1ccc(O)c(O)c1O	active: 10.3 µM	–
CN(C(=O)c1cccc(NC(=O)Cc2ccccc2)c1)c1ccccc1	inconclusive [inhibitor, partial curve]	–
CN(CC(=O)NC(=O)NC1CCCCC1)CC(=O)Nc1ccccc1C(F)(F)F	inconclusive [inhibitor, single point]	–
CCC(C)c1ccccc1N1CC(C(=O)N2CCN(S(=O)(=O)c3ccc(F)cc3)CC2)CC1=O (centres undefined)	–	inactive: -14.4%
CCOC(=O)c1c(NC(=O)CSc2c[nH]c3ccccc23)sc2c1CCCC2	inconclusive [inhibitor, single point]	–
Nn1c(C2COc3ccccc3O2)n[nH]c1=S (centres undefined)	inconclusive [inhibitor, partial curve, poor fit]	–
O=C(Nc1ccc(Nc2ccccc2)cc1)c1ccccc1F	inconclusive [inhibitor, single point]	–
O=[N+]([O-])c1ccc(O)c(/C=N/Nc2ncnc3c2cnn3-c2ccccc2)c1	active: 3.66 µM	–
Cc1ccc(C(=O)C2CCN(C(=S)NCC3CCCO3)CC2)cc1 (centres undefined)	active: 14.6 µM	–
COc1ccc(-c2noc(C(C)NS(=O)(=O)c3ccc(NC(C)=O)cc3)n2)cc1 (centres undefined)	inconclusive [inhibitor, partial curve, poor fit]	–
CCOC(=O)C1CCN(C(=O)Cn2nc(CC)n3cccc3c2=O)CC1	inconclusive [inhibitor, single point]	–

SMILES	Potency	activity change, negative = growth inhibition
Cc1cccc(-c2oc3ccc(-c4ccc5c(c4)OCO5)cc3c2/C=C/c2ccc(N)cc2)c1	–	inactive: 8.81%
CCN(CC(=O)Nc1c(F)cccc1F)C(=O)CCc1ccc(OC)cc1	–	inactive: 0.604%
CCOC(=O)N1CCN(C(=O)c2cc3cc(F)ccc3[nH]2)CC1	inconclusive [inhibitor, partial curve]	–
Cc1ccc([C@H]2N[C@]3(CCCN(CC4CCCCC4)C3=O)[C@H]3C(=O)N(Cc4ccccc4)C(=O)[C@@H]23)cc1	inconclusive [inhibitor, single point]	–
O=C(CCc1nnc2ccc(NCc3ccco3)nn12)Nc1cc(F)ccc1F	inconclusive [inhibitor, single point]	–
O=C1N(Cc2cccc(Cl)c2)C[C@@H]2C[C@@H](c3cccc4cccnc34)N3CCC[C@@]123	inconclusive [inhibitor, single point]	–
Cc1nc(C(=O)NC2CC2)sc1C1(C)CC(c2cccc([N+](=O)[O-])c2)=NO1 (centres undefined)	inconclusive [inhibitor, single point]	–
CC1CCCC(=C\c2ccccc2)/C1=N/O (centres undefined)	inconclusive [inhibitor, single point]	–
Cc1ccc(S(=O)(=O)n2cccc2C)cc1	inconclusive [inhibitor, single point]	–
O=C(NCc1ccc(F)cc1)C1CCN(C(=O)c2ccc(-n3ccc4ccccc43)s2)CC1	active: 16.4 µM	–
O=C(Nc1cccc(C(=O)Nc2ccc(Br)cc2)c1)c1ccccc1	inconclusive [inhibitor, single point]	–
O=C(CCNS(=O)(=O)c1cccc2nonc12)N1CCN(c2cccc(Cl)c2)CC1	inconclusive [inhibitor, single point]	–
CCc1c(C)nc2cc(-c3cccc(Br)c3)[nH]n2c1=O	active: 4.61 µM	–
N#Cc1ccc(NC(=S)NC(=O)C2CCCCC2)cc1	inconclusive [inhibitor, partial curve, poor fit]	–
O=C(CCC(=O)c1ccc(Cl)cc1)OCc1nc2ccsc2c(=O)[nH]1	–	inactive: -17.1%
Cc1ccc(C(=O)OC(C)C(=O)c2cc(C)c(C)cc2C)o1 (centres undefined)	inconclusive [inhibitor, single point]	–
CCc1ccc2c(c1)c1nnc(NN)nc1n2CC	inconclusive [inhibitor, single point]	–
COc1cc(C(=O)Nc2cccc(NC(=O)c3cccs3)c2)cc(OC)c1OC	active: 20.6 µM	–
CCN(CC)C(=O)C1=C(C)N(Cc2ccccc2)C(=O)C(CC(=O)NCC2CCCCC2)C1 (centres undefined)	inconclusive [inhibitor, single point]	–
COc1ccc(CC(=O)Nc2ccc3nc(Nc4cccc(Cl)c4)cc(C)c3c2)cc1OC	active: 18.4 µM	–
Cc1cc(C(=O)N/N=C/c2ccc([N+](=O)[O-])s2)c2ccccc2n1	active: 25.9 µM	–
O=C(CSc1ccc(Cl)cc1)Nn1cnnc1	active: 18.4 µM	–
C=CC(C1=CC(=O)C=CC1=O)c1ccc(O)cc1 (centres undefined)	active: 1.64 µM	–

— PubChem BioAssay AID686979 (National Center for Advancing Translational Sciences (NCATS), 2013)
